Laboratory results from patent publication US11123337B2, “4-methylsulfonyl-substituted piperidine urea compounds” (MYOKARDIA, INC., priority 2015, dated 2021).
At least one compound was matched to its structure with a doubt left.

The compounds below were run against bovine cardiac myosin (Bos taurus, UniProt Q9BE39) (assay: Myosin activation assay (PK/LDH-coupled ATPase, bovine cardiac myofibrils)). Details: AC20 = concentration at which total response is increased by twenty percent.
Assay type: biochemical
Experimental: Small molecule agents were assessed for their ability to activate the enzymatic activity of bovine cardiac myosin using a biochemical assay that couples the release of ADP (adenosine diphosphate) from cardiac myosin to an enzymatic coupling system consisting of pyruvate kinase and lactate dehydrogenase (PK/LDH) and monitoring the absorbance decrease of NADH (at 340 nm) as a function of time. PK converts ADP to ATP (adenosine triphosphate) by converting PEP (phosphoenolpyruvate) to pyruvate. Pyruvate is then converted to lactate by LDH by converting NADH (nicotinamide adenine dinucleotide) to NAD (oxidized nicotinamide adenine dinucleotide). The source of cardiac myosin was from bovine heart in the form of skinned myofibrils. Prior to testing small molecule agents, the bovine myofibrils were assessed for their calcium responsiveness and the calcium concentration that achieves either a 50% (pCa50 or pCa=˜6) or <5% (pCa=10) activation of the myofibril system was chosen as the final condition for assessing the activation activity of the small molecule agents. All enzymatic activity was measured in a buffered solution containing 12 mM PIPES (piperazine-N,N′-bis(2-ethanesulfonic acid), 2 mM magnesium chloride at pH 6.8 (PM12 buffer). Final assay conditions were 1 mg/mL of bovine cardiac myofibrils, 0.4 mM PK/LDH, 50 uM ATP, 0.1 mg/mL BSA (bovine serum albumin), 10 ppm antifoam, 2 mM BME, 0.5 mM NADH, 1.5 mM PEP at the desired free calcium concentration required to achieve either 50% or <5% activation of the myofibrils.
A dilution series of compound was created in DMSO such that the final desired concentration of compound would be achieved in a volume of […] with a fixed DMSO concentration of 3.3% (v/v). Typically a 1 μL of the dilution series was added to a 384 well plate to achieve a 10 point dose response. Following the addition of 14 μL of a solution containing bovine cardiac myofibrils, PK/LDH and a solution of calcium (that achieved the desired activation), the enzymatic reaction was started with the addition of 15 μL of a solution containing ATP, PEP and NADH. The reaction progress was followed in a PerkinElmer Envision plate reader at ambient temperature using clear bottom plates. The plate reader was configured to read absorbance at 340 nm in kinetics mode for 15 minutes. Data were recorded as the slope of the absorbance response to time. The slopes of the absorbance response as a function of time were normalized to slopes on the plate containing DMSO. This normalized rate was then plotted as a function of small molecule concentration and the data was fitted to a four-parameter fit using EXCEL XLfit. The concentration at which the total response is increased by twenty or fifty percent is reported as AC20 or AC50.

bovine cardiac myosin, sequence (Q9BE39 whole entry): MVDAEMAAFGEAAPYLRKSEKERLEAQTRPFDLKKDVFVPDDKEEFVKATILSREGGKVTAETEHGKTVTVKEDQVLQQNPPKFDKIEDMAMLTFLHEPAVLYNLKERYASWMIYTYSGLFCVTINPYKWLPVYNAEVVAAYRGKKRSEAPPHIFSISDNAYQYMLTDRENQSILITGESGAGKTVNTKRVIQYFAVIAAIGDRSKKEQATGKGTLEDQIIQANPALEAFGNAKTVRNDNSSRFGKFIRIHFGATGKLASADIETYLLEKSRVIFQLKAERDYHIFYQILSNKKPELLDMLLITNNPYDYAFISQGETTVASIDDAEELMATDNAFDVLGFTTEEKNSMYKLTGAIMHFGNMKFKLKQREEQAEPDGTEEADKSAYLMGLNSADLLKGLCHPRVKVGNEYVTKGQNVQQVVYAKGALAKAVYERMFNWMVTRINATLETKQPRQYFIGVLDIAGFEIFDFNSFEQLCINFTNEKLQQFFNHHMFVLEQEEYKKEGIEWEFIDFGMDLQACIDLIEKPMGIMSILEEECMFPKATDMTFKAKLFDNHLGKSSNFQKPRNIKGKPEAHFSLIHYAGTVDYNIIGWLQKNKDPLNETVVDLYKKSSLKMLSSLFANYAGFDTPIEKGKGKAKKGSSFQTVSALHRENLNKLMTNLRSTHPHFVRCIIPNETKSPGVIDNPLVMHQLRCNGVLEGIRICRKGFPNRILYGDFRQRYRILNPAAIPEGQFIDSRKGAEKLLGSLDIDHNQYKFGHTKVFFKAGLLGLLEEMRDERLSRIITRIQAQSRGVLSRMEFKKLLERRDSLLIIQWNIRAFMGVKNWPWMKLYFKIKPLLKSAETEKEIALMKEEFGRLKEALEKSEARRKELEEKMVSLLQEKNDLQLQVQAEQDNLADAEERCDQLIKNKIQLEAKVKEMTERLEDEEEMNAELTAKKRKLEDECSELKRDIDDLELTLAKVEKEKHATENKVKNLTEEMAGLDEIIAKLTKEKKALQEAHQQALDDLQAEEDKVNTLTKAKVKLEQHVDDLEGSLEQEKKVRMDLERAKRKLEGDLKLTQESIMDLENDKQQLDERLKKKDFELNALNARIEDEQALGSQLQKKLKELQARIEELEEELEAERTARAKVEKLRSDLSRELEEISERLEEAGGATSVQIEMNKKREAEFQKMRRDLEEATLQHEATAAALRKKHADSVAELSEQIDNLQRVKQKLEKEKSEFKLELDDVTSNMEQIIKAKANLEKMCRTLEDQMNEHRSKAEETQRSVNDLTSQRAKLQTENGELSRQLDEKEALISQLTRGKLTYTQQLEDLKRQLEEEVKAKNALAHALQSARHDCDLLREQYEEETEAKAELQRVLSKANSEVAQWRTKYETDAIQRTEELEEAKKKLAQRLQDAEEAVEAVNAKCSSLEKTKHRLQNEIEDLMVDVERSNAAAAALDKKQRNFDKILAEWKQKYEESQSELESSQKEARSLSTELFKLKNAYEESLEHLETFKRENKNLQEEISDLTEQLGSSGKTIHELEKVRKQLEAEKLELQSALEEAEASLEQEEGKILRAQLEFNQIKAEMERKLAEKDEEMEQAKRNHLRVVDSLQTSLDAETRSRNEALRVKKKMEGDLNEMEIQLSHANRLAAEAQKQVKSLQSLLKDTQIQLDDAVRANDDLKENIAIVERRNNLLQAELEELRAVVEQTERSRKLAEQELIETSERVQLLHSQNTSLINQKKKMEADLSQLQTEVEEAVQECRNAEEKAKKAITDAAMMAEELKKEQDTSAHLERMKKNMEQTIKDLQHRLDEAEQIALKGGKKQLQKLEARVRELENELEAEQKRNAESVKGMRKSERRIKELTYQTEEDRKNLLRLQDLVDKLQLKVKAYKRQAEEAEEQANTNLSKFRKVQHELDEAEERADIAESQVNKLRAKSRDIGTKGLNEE
bovine cardiac myosin, sequence (P85100 whole entry partner): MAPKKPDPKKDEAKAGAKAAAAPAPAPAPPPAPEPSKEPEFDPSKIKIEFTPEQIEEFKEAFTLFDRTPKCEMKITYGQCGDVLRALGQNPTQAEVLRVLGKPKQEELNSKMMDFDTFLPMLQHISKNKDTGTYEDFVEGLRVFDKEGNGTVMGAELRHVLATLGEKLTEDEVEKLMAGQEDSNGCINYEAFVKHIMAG
bovine cardiac myosin, sequence (Q3SZE5 whole entry partner): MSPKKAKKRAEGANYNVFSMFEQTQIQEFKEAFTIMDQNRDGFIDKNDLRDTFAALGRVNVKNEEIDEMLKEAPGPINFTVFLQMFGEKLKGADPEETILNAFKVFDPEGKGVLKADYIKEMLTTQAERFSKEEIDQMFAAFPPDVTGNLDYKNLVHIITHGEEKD

Row | Structure (SMILES) | Myosin Activation (AC20)
1 | CC(C)(C1CCN(C(=O)Nc2ccon2)CC1)S(=O)(=O)c1cccc(F)c1 [Compound 150, 4-(2-((3-fluorophenyl)sulfonyl)propan-2-yl)-N-(isoxazol-3-yl)piperidine-1-carboxamide] | + (+ represents myosin activation value AC20 > 5 μM)
2 | Cn1nc(C(F)F)cc1S(=O)(=O)C(C)(F)C1CCN(C(=O)Nc2ccc(F)nc2)CC1 (stereo not drawn) [Compound 254, 4-(1-((3-(difluoromethyl)-1-methyl-1H-pyrazol-5-yl)sulfonyl)-1-fluoroethyl)-N-(6-fluoropyridin-3-yl)piperidine-1-carboxamide] | + (+ represents myosin activation value AC20 > 5 μM)
3 | Cn1cc(S(=O)(=O)C(C)(C)C2CCN(C(=O)Nc3ccon3)CC2)c(C(F)(F)F)n1 [Compound 26, N-(Isoxazol-3-yl)-4-(2-((1-methyl-3-(trifluoromethyl)-1H-pyrazol-4-yl)sulfonyl)propan-2-yl)piperidine-1-carboxamide] | ++ (++ represents myosin activation value AC20 from 2 μM-5 μM)
4 | N#Cc1ccc(S(=O)(=O)C(F)(F)C2CCN(C(=O)Nc3ccnnc3)CC2)cc1 [Compound 47, 4-(((4-cyanophenyl)sulfonyl)difluoromethyl)-N-(pyridazin-4-yl)piperidine-1-carboxamide] | ++ (++ represents myosin activation value AC20 from 2 μM-5 μM)
5 | Cn1nc(Cl)cc1S(=O)(=O)C(C)(F)C1CCN(C(=O)Nc2ccnnc2)CC1 (stereo not drawn) [Compound 15, 4-(1-((3-Chloro-1-methyl-1H-pyrazol-5-yl)sulfonyl)-1-fluoroethyl)-N-(pyridazin-4-yl)piperidine-1-carboxamide] | +++ (+++ represents myosin activation value AC20 < 2 μM)
6 | O=C(Nc1cnns1)N1CCC(C(F)(F)S(=O)(=O)c2ccc(C(F)(F)F)cc2)CC1 [Compound 46, 4-(difluoro((4-(trifluoromethyl)phenyl)sulfonyl)methyl)-N-(1,2,3-thiadiazol-5-yl)piperidine-1-carboxamide] | ++ (++ represents myosin activation value AC20 from 2 μM-5 μM)
7 | Cc1cc(NC(=O)N2CCC([C@@](C)(F)S(=O)(=O)c3cn(C)nc3C(F)F)CC2)ccn1 [Compound 298, (S)-4-(1-((3-(difluoromethyl)-1-methyl-1H-pyrazol-4-yl)sulfonyl)-1-fluoroethyl)-N-(2-methylpyridin-4-yl)piperidine-1-carboxamide] | + (+ represents myosin activation value AC20 > 5 μM)
8 | Cn1cc(S(=O)(=O)[C@@](C)(F)C2CCN(C(=O)Nc3ccnc(C#N)c3)CC2)c(C(F)F)n1 [Compound 294, (R)-N-(2-cyanopyridin-4-yl)-4-(1-((3-(difluoromethyl)-1-methyl-1H-pyrazol-4-yl)sulfonyl)-1-fluoroethyl)piperidine-1-carboxamide] | ++ (++ represents myosin activation value AC20 from 2 μM-5 μM)
9 | CC(F)(C1CCN(C(=O)Nc2cn[nH]c2)CC1)S(=O)(=O)c1cccc(F)c1 (stereo not drawn) [Compound 13.1, 4-(1-Fluoro-1-((3-fluorophenyl)sulfonyl)ethyl)-N-(1H-pyrazol-4-yl)piperidine-1-carboxamide] | ++ (++ represents myosin activation value AC20 from 2 μM-5 μM)
10 | Cn1nc(C(F)F)cc1S(=O)(=O)C(C)(F)C1CCN(C(=O)Nc2ccnc(F)c2)CC1 (stereo not drawn) [Compound 255, 4-(1-((3-(difluoromethyl)-1-methyl-1H-pyrazol-5-yl)sulfonyl)-1-fluoroethyl)-N-(2-fluoropyridin-4-yl)piperidine-1-carboxamide] | ++ (++ represents myosin activation value AC20 from 2 μM-5 μM)
11 | Cn1cc(NC(=O)N2CCC(C(C)(F)S(=O)(=O)c3cccc(F)c3)CC2)cn1 (stereo not drawn) [Compound 13, 4-(1-Fluoro-1-((3-fluorophenyl)sulfonyl)ethyl)-N-(1-methyl-1H-pyrazol-4-yl)piperidine-1-carboxamide] | + (+ represents myosin activation value AC20 > 5 μM)
12 | Cn1cc(S(=O)(=O)C(C)(C)C2CCN(C(=O)Nc3ccnc(F)c3)CC2)c(C(F)F)n1 [Compound 116, 4-(2-((3-(difluoromethyl)-1-methyl-1H-pyrazol-4-yl)sulfonyl)propan-2-yl)-N-(2-fluoropyridin-4-yl)piperidine-1-carboxamide] | +++ (+++ represents myosin activation value AC20 < 2 μM)
13 | COc1cccc(S(=O)(=O)C(F)(F)C2CCN(C(=O)Nc3ccnnc3)CC2)c1Cl [Compound 75, 4-(((2-chloro-3-methoxyphenyl)sulfonyl)difluoromethyl)-N-(pyridazin-4-yl)piperidine-1-carboxamide] | ++ (++ represents myosin activation value AC20 from 2 μM-5 μM)
14 | Cc1ccc(NC(=O)N2CCC(C(C)(F)S(=O)(=O)c3cc(C(F)F)nn3C)CC2)cn1 (stereo not drawn) [Compound 256, 4-(1-((3-(difluoromethyl)-1-methyl-1H-pyrazol-5-yl)sulfonyl)-1-fluoroethyl)-N-(6-methylpyridin-3-yl)piperidine-1-carboxamide] | ++ (++ represents myosin activation value AC20 from 2 μM-5 μM)
15 | Cn1nc(C(F)F)cc1S(=O)(=O)C(C)(F)C1CCN(C(=O)Nc2ccon2)CC1 (stereo not drawn) [Compound 253, 4-(1-((3-(difluoromethyl)-1-methyl-1H-pyrazol-5-yl)sulfonyl)-1-fluoroethyl)-N-(isoxazol-3-yl)piperidine-1-carboxamide] | +++ (+++ represents myosin activation value AC20 < 2 μM)
